In PubChem BioAssay AID743279 (National Center for Advancing Translational Sciences (NCATS), 2014):
Screen size: about 360,000 compounds; about 17,000 (4.7%) were called active. The shares of active, inactive and inconclusive entries below differ from those in the screen. Cut-off read from the data, not from the text of the source: active = activity change below about -50%; inconclusive = mostly about -30% to -49%; inactive = weaker than that.

Assay: qHTS for Inhibitors of Inflammasome Signaling: IL-1-beta AlphaLISA Primary Screen
Conditions: THP-1 LPS/ATP IL-1B secretion, 16 h; at 57.5 µM, stronger effect = lower value
Outline: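 Secreted IL-1B measured by AlphaLISA bead assay after 16 h compound exposure of THP-1 cells; compounds (final up to 57.5 uM) added 1 h before LPS (250 ng/mL) and ATP (1.25 mM) stimulation; lower signal means less secretion.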
% is set by controls: 0 for no effect and ±100 for the full control effect.

Activity change, inactive:
O=C(O)CCCCCCCCc1cn(CCc2c[nH]c3ccccc23)nn1 25%
O=C(O)c1c2c(nc3ccc(S(=O)(=O)N4CCC(C(=O)NCc5ccc(Cl)cc5)CC4)cc13)CCCC2 2.14%
O=C(NCC1CCCO1)c1sc2ccccc2c1Cl (stereo unspecified) -9.33%
CCOC(=O)c1c(NC(=O)c2ccc(N3C(=O)[C@@H]4[C@H](C3=O)[C@H]3C=C[C@@H]4C3)cc2)sc2c1CCCC2 27.2%
COc1ccc2[nH]c(CN3CCN(CC=C(C)C)C(CCO)C3)c(C)c2c1 (stereo unspecified) -2.84%
O=S1(=O)[C@H]2C[C@H](CO)O[C@@]2(CO)CN1Cc1ccc(-c2ccc(F)cc2)cc1 64.5%
C=CCn1c(=O)c(C(=O)NCc2ccccc2Cl)c(O)c2ccccc21 0%
COCCNC(=O)[C@@]1(C)C=C[C@@H](Cc2ccccc2)N1C(=O)c1ccccc1 -6.53%
Cc1ccc(NC(=O)CSCC(=O)OC(C)C(=O)Nc2ccc(S(N)(=O)=O)cc2)c(C)c1 (stereo unspecified) 39%
COc1cc(OC)cc(C(=O)NCCN2CCOCC2)c1 -18.8%
COCCCN1C(=O)C(=O)/C(=C(/O)c2ccc(C)cc2)C1/C=C/c1ccccc1 (stereo unspecified) -1.22%
Cc1c(C=O)c2ccccn2c1C(=O)c1cccs1 -11.8%
CC(=O)Nc1ccc(N(CC(=O)NCC2CCCO2)C(=O)CCC(=O)Nc2cc(C)on2)cc1 (stereo unspecified) -6.81%
C[C@H]1CN([C@@H](C)CO)C(=O)CCCn2nncc2CO[C@@H]1CN(C)C(=O)NC1CCCCC1 9.4%
Cc1ccc(NS(=O)(=O)c2ccc(C)c(C(=O)NCC(c3ccccc3)N(C)C)c2)cc1 (stereo unspecified) -7.53%
Cc1ccc(CNc2nc(C)nc3sc4c(c23)CCC4)cc1 3.25%
CCCCCCN1C[C@@H](n2cc(C3CC3)nn2)[C@H](O)C[C@@H]1c1ccccc1 0%
COc1ccc([C@H]2N[C@]3(CCCN(Cc4ccc(C(F)(F)F)cc4)C3=O)[C@H]3C(=O)N(Cc4ccccc4)C(=O)[C@@H]23)cc1 0%
Cc1ccc(NC(=S)NNS(=O)(=O)c2ccc3ccccc3c2)cc1Cl 3.52%
CC(=O)c1cc2c(cc1NC(=O)c1ccc(C)cc1)OCCO2 28.1%

Activity change, active:
O=C(c1ccc(Cl)c(Cl)c1)N1CCC(=O)N(C(COCc2cccc(C(F)(F)F)c2)Cc2ccccc2)CC1 (stereo unspecified) -86.2%
CS(=O)(=O)c1nc(S(=O)(=O)c2ccc(Cl)cc2)c(N2CCC(C(N)=O)CC2)s1 -79.4%
Cc1ccc(S(=O)(=O)Nc2ccc3nc(-c4cccn4C)[nH]c3c2)cc1 -50%
O=C(Cn1cc(S(=O)(=O)N2CCN(c3ccccc3F)CC2)c2ccccc2c1=O)NCCCN1CCCCCC1 -61.5%
[O-][n+]1onc2c1CCc1[nH]c(-c3ccccc3)nc1-2 -66.3%
COc1ccc(S(=O)(=O)Nc2ccc(F)cc2)cc1N(C)S(=O)(=O)c1ccc(Cl)cc1 -93.8%
O=C(CCCN1CCC(O)(c2cccc(C(F)(F)F)c2)CC1)c1ccc(F)cc1 -53.5%
CN(C(=S)Nc1ccc(Oc2ccccc2)cc1)C1CCCCC1 -100%

Activity change, inconclusive:
CCCCNC(=O)C1(C)CCN1Cc1cccc2c(OC)cc(C(=O)OCC)cc12 (stereo unspecified) -48.8%
Cc1csc(NC(=O)c2ccc(S(=O)(=O)N(C)c3ccccc3)cc2)n1 -31.2%
Cc1cc(-n2c(C)cc(C(=S)N3CCOCC3)c2C)ccc1Br -34.4%
COc1ccc(C(CNC(=O)c2oc3ccc(OC)cc3c2C)N2CCCC2)cc1 (stereo unspecified) -47.8%
CC(C)(C)NC(=O)CSc1nc(Cc2ccccc2)nc2ccccc12 -41.9%
Cc1cc2c(cc1C)NC(c1c(C)n(C)n(-c3ccccc3)c1=O)C1=C(CC(C)(C)CC1=O)N2 (stereo unspecified) -46.8%
C[C@@H](c1ccccc1)N1C[C@@H](COCc2ccccc2)Oc2cc(N3CCC[C@H]3CO)ccc2S1(=O)=O -33.9%
CCc1ccccc1NC(=S)NC1CC2CCC(C1)N2Cc1ccco1 (stereo unspecified) -45.5%
O=C(Nc1cccc(S(=O)(=O)N2CCCCCC2)c1)c1ccc(Cl)nc1 -45.6%
Cc1nc(N2CCN(C(=O)COc3ccccc3)CC2)c2c(C)c(C)sc2n1 -38%
Cn1nnnc1SCc1nc2scc(-c3ccc(Cl)cc3)c2c(=O)[nH]1 -37.5%
Cc1ccc(NC(=O)CSc2nnc(-c3cnccn3)n2C)cc1C -45.8%
O=C(Nc1ccc(F)c(F)c1)C1CCN(S(=O)(=O)c2cccc3nonc23)CC1 -30.2%
O=C(CN(c1ccc(F)cc1)S(=O)(=O)c1ccccc1)NC1CC2CCC1C2 (stereo unspecified) -31.5%
CC1(c2ccc3noc(-c4ccc(F)cc4)c3c2)OCCO1 -35.2%
COc1cc(S(=O)(=O)N2CCOCC2)ccc1NC(=O)c1cc2c(s1)CCC2 -44.2%
COc1ccc2c(c1)OC[C@H]1[C@H]2N2C(=O)CN(Cc3ccc(C)cc3)C(=O)[C@@]2(C)[C@H]1c1ccccc1 -49.5%
O=C1Nc2ccccc2C1=Nc1ccc2[nH]c3ccccc3c2c1 -34.4%
CCCCNC(=O)c1onc(CSc2ccc(Cl)cc2)c1C(=O)NCCCC -30.8%
COc1cc2c(cc1OC)-c1cc(Nc3ccc(C)cc3)nc(=O)n1CC2 -31.4%
COc1cc(C(=O)NCC(c2cccs2)N2CCc3ccccc32)cc(OC)c1OC (stereo unspecified) -33.7%
O=C(C[C@@H]1C[C@H]2c3cc(NC(=O)NC4CCCCC4)ccc3O[C@H]2[C@H](CO)O1)NC1CCCCC1 -33.6%
Cc1ccc(C(=O)O/N=C(\N)Cc2cccs2)c(Cl)c1 -38%
